Measured values as given in ChEMBL document CHEMBL1201862, “PubChem BioAssay data set” (2004).
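Tested at 5 concentrations; 48 h exposure; 96-well plates; endpoints linearly interpolated, else capped at highest concentration. The concentration for 50% growth inhibition is given as GI50.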 Active and inactive are the calls of the source. Rule as the data show it: active = GI50 up to about 1.1 µM and inactive = higher.

Tests used:
Experiment in all cases: NCI-60 cell line screen, 48 h
[1] = tested on: NCI-H460
[2] = tested on: CCRF-CEM
[3] = tested on: HCC 2998
[4] = tested on: HT-29
[5] = tested on: MDA-MB-231
[6] = tested on: OVCAR-4
[7] = tested on: Hs-578T
[8] = tested on: A498
[9] = tested on: UO-31
[10] = tested on: HCT-116
[11] = tested on: SK-MEL-28
[12] = tested on: NCI-H522
[13] = tested on: SF-268
[14] = tested on: SF-539
[15] = tested on: HOP-62
[16] = tested on: K562
[17] = tested on: RPMI-8226
[18] = tested on: CAKI-1
[19] = tested on: NCI-H226
[20] = tested on: NCI/ADR-RES
[21] = tested on: OVCAR-3
[22] = tested on: A549
[23] = tested on: SN12C
[24] = tested on: SK-MEL-5
[25] = tested on: PC-3
[26] = tested on: HCT-15
[27] = tested on: OVCAR-5
[28] = tested on: IGROV-1
[29] = tested on: EKVX
[30] = tested on: U-251
[31] = tested on: COLO 205
[32] = tested on: HL-60
[33] = tested on: MDA-MB-435
[34] = tested on: MDA-N
[35] = tested on: Malme-3M
[36] = tested on: SR
[37] = tested on: RXF 393
[38] = tested on: SF-295
[39] = tested on: 786-0
[40] = tested on: TK-10
[41] = tested on: ACHN
[42] = tested on: SNB-19
[43] = tested on: LOX IMVI
[44] = tested on: SNB-75
[45] = tested on: HOP-92
[46] = tested on: MCF7
[47] = tested on: BT-549
[48] = tested on: DU-145
[49] = tested on: UACC-257
[50] = tested on: MOLT-4
[51] = tested on: OVCAR-8
[52] = tested on: SW-620
[53] = tested on: KM12

In the case of Cc1ccc2[nH]c3c(c2c1)CC(=O)Nc1ccccc1-3, the GI50 [1] is reported as inactive: > 100 µM, the GI50 [2] is reported as inactive: > 100 µM and the GI50 [3] is reported as inactive: > 100 µM. For the same compound, the GI50 [4] was inactive: > 100 µM, the GI50 [5] was inactive: > 100 µM and the GI50 [6] was inactive: > 100 µM. For the same compound, the GI50 [7] was inactive: > 100 µM, the GI50 [8] was inactive: > 100 µM and the GI50 [9] was inactive: > 100 µM. For the same compound, the GI50 [10] was inactive: > 100 µM, the GI50 [11] was inactive: > 100 µM and the GI50 [12] was inactive: > 100 µM. For the same compound, the GI50 [13] was inactive: > 100 µM, the GI50 [14] was inactive: > 100 µM and the GI50 [15] was inactive: > 100 µM. For the same compound, the GI50 [16] was inactive: > 100 µM, the GI50 [17] was inactive: > 100 µM and the GI50 [18] was inactive: > 100 µM. For the same compound, the GI50 [19] was inactive: > 100 µM, the GI50 [20] was inactive: > 100 µM and the GI50 [21] was inactive: > 100 µM. For the same compound, the GI50 [22] was inactive: 32.5 µM, the GI50 [23] was inactive: > 100 µM and the GI50 [24] was inactive: 5.87 µM. For the same compound, the GI50 [25] was inactive: > 100 µM, the GI50 [26] was > 100 µM and the GI50 [27] was inactive: > 100 µM. For the same compound, the GI50 [28] was inactive: > 100 µM, the GI50 [29] was inactive: > 100 µM and the GI50 [30] was inactive: > 100 µM. For the same compound, the GI50 [31] was inactive: > 100 µM, the GI50 [32] was inactive: > 100 µM and the GI50 [33] was inactive: > 100 µM. The GI50 [34] was inactive: > 100 µM, the GI50 [35] was inactive: > 100 µM and the GI50 [36] was inactive: > 100 µM. For the same compound, the GI50 [37] was inactive: > 100 µM, the GI50 [38] was inactive: > 100 µM and the GI50 [39] was inactive: > 100 µM. For the same compound, the GI50 [40] was inactive: > 100 µM, the GI50 [41] was inactive: > 100 µM and the GI50 [42] was inactive: > 100 µM. For the same compound, the GI50 [43] was inactive: > 100 µM, the GI50 [44] was inactive: > 100 µM and the GI50 [45] was inactive: > 100 µM. The GI50 [46] was inactive: > 100 µM, the GI50 [47] was inactive: > 100 µM and the GI50 [48] was inactive: > 100 µM. For the same compound, the GI50 [49] was inactive: > 100 µM, the GI50 [50] was inactive: > 100 µM and the GI50 [51] was inactive: > 100 µM. For the same compound, the GI50 [52] was inactive: > 100 µM and the GI50 [53] was inactive: > 100 µM.
